Laboratory results: patent EP4696329A1, “ANTI-ROR1 ANTIBODY AND DRUG CONJUGATE THEREOF” (priority 2023, dated 2024)

B1: ADC-2: antibody AM3-ZH3 conjugated to linker-drug compound LD-14, DAR 3.7~4.3 (conjugate)
heavy: EVQLVESGGGLVQPGGSLRLSCAASGFTFSSYPMSWVRQAPGKGLEWVSSISTGASAYFPDSVKGRFTISRDNAKNSLYLQMNSLRAEDTAVYYCARITTSTWYMDVWGQGTTVTVSS[gap - human IgG1 constant region]
light: DIQMTQSPSAMSASVGDRVTITCKASQDIYSYLSWFQQKPGKVPKTLIYRANRLVRGVPSRFSGSGSGQEYTLTISSLQPEDMATYYCLQYDEFPYTFGQGTKLEIKRTVAAPSVFIFPPSDEQLKSGTASVVCLLNNFYPREAKVQWKVDNALQSGNSQESVTEQDSKDSTYSLSSTLTLSKADYEKHKVYACEVTHQGLSSPVTKSFNRGEC
B2: ADC-5: antibody AM3-ZH3 conjugated to linker-drug compound LD-1, DAR 3.7~4.3 (conjugate)
heavy: B1 heavy
light: B1 light
B3: ADC-4: bispecific antibody KIH YR8/ZH3 conjugated to linker-drug compound LD-1, DAR 3.7~4.3 (conjugate)
heavy 1: QVQLQESGPGLVKPSETLSLTCTVSGFSLTRYGVHWIRQPPGKGLEWLGVIWAGGFTNYESDLKSRLTISKDNSKNQVSLKLSSVTAADTAVYYCARRGDSYSMKYWGQGTLVTVSSASTKGPSVFPLAPSSKSTSGGTAALGCLVKDYFPEPVTVSWNSGALTSGVHTFPAVLQSSGLYSLSSVVTVPSSSLGTQTYICNVNHKPSNTKVDKKV[gap - human IgG1 Fc with changes]
light 1: EIVLTQSPATLSLSPGERATLSCSASSQVSYIHWYQQKPGQAPRPWIYETSKLASGIPARFSGSGSGTDYTLTISSLEPEDFAVYYCQQWNYPLITFGQGTKLEIKRTVAAPSVFIFPPSDEQLKSGTASVVCLLNNFYPREAKVQWKVDNALQSGNSQESVTEQDSKDSTYSLSSTLTLSKADYEKHKVYACEVTHQGLSSPVTKSFNRGEC
heavy 2: EVQLVESGGGLVQPGGSLRLSCAASGFTFSSYPMSWVRQAPGKGLEWVSSISTGASAYFPDSVKGRFTISRDNAKNSLYLQMNSLRAEDTAVYYCARITTSTWYMDVWGQGTTVTVSSASTKGPSVFPLAPSSKSTSGGTAALGCLVKDYFPEPVTVSWNSGALTSGVHTFPAVLQSSGLYSLSSVVTVPSSSLGTQTYICNVNHKPSNTKVDKKV[gap - human IgG1 Fc with changes]
light 2: B1 light
B4: ADC-3: bispecific antibody KIH YR8/ZH3 conjugated to linker-drug compound LD-14, DAR 3.7~4.3 (conjugate)
heavy 1: QVQLQESGPGLVKPSETLSLTCTVSGFSLTRYGVHWIRQPPGKGLEWLGVIWAGGFTNYESDLKSRLTISKDNSKNQVSLKLSSVTAADTAVYYCARRGDSYSMKYWGQGTLVTVSSASTKGPSVFPLAPSSKSTSGGTAALGCLVKDYFPEPVTVSWNSGALTSGVHTFPAVLQSSGLYSLSSVVTVPSSSLGTQTYICNVNHKPSNTKVDKKV[gap - human IgG1 Fc with changes]
light 1: B3 light 1
heavy 2: EVQLVESGGGLVQPGGSLRLSCAASGFTFSSYPMSWVRQAPGKGLEWVSSISTGASAYFPDSVKGRFTISRDNAKNSLYLQMNSLRAEDTAVYYCARITTSTWYMDVWGQGTTVTVSSASTKGPSVFPLAPSSKSTSGGTAALGCLVKDYFPEPVTVSWNSGALTSGVHTFPAVLQSSGLYSLSSVVTVPSSSLGTQTYICNVNHKPSNTKVDKKV[gap - human IgG1 Fc with changes]
light 2: B1 light

What follows are molecules tested on subcutaneous Jeko-1 tumors (assay: ADC efficacy in mantle cell lymphoma cell line Jeko-1 graft mouse model). Conditions: Jeko-1, 1 mg/kg, Q4D×3, intravenous.
Type: in vivo, CB17 SCID mouse
Description: (§1) 1 × 10^7 HCC1187 cells (a breast cancer cell line that expresses human ROR1, purchased from ATCC) were subcutaneously grafted into each female severe combined immunodeficiency CB17 SCID mouse (purchased from Charles River Laboratories). After the graft, when the average tumor size reached 162 mm^3 (day 0), the mice were divided into groups, and the ADC1, ADC2, ADC3, ADC4, or ADC5 prepared in Example 8 was intravenously injected into mice at 3.0 mg/kg once (single administration), or ADC2, ADC3, ADC4, or ADC5 was intravenously injected into mice at 1.0 mg/kg once every four days for a total of two doses (day 0 and day 4, Q4D × 2). In the control group, PBS was intravenously injected into mice at 4 mL/kg. During the 48 days thereafter, the tumor size and body weight of the mice were measured, and the tumor growth inhibition (TGI) rate was calculated. TGI was calculated as follows: TGI (%) = 1−[(Td−T0)/(Cd−C0)] × 100% [formula] where Td and Cd are the average tumor volumes of the treatment group and the control group on the day of tumor volume measurement, and T0 and C0 are the average tumor volumes of the treatment group and the control group on day 0.
1 × 10^7 Jeko-1 cells (mantle cell lymphoma cells that express human ROR1, purchased from ATCC) were subcutaneously grafted into each female severe combined immunodeficiency CB17 SCID mouse (purchased from Charles River Laboratories). After the graft, when the average tumor size reached 156 mm^3 (day 0), the mice were divided into groups, and the ADC1, ADC2, ADC3, ADC4, or ADC5 prepared in Example 8 was intravenously injected into mice at 3.0 mg/kg once (single administration), or ADC2, ADC3, ADC4, or ADC5 was intravenously injected into mice at 1.0 mg/kg once every four days for a total of three doses (day 0, day 4, and day 8, Q4D × 3). In the control group, PBS was intravenously injected into mice at 4 mL/kg. During the 51 days thereafter, the size of the tumor grafts in the mice and the body weight of the mice were measured, and the tumor growth inhibition (TGI) rate was calculated. Table 15. The tumor growth inhibition rates of different ADCs against subcutaneous Jeko-1 tumors in mice

Going from B1 to B2, the “Tumor growth inhibition rate TGI% (day 20)” value falls from 96.42% to 81.55%.

First: B3
Second: B4
The “Tumor growth inhibition rate TGI% (day 20)” value of the first is lower: 97.79% for the first, 102.16% for the second.

Same assay, conditions: Jeko-1, 3 mg/kg, single administration, intravenous

First: B1
Second: B2
The “Tumor growth inhibition rate TGI% (day 20)” value of the first is higher: 92.00% for the first, 87.48% for the second.

Compared with B3, B4 is higher in “Tumor growth inhibition rate TGI% (day 20)” value: 99.82% for the first, 101.26% for the second.

These molecules were tested on subcutaneous PA-1 tumors (assay: ADC efficacy in ovarian cancer cell line PA-1 graft mouse model). Conditions: PA-1, 1 mg/kg, single administration, intravenous.
Type: in vivo, nude mouse
Description: as §1, with “TGI was calculated as follows: TGI (%) = 1−[(Td−T0)/(Cd−C0)] × 100% [formula] where Td and Cd are the average tumor volumes of the treatment group and the control group on the day of tumor volume measurement, and T0 and C0 are the average tumor volumes of the treatment group and the control group on day 0.” left out
5 × 10^6 PA-1 cells (an ovarian cancer cell line that expresses human ROR1, purchased from ATCC) were subcutaneously grafted into each female nude mouse (purchased from Charles River Laboratories). […] During the 13 days thereafter, the tumor size and body weight of the mice were measured, and TGI was calculated. […]

For B4, the “Tumor growth inhibition rate TGI% (day 13)” value was 37.45%.

Same assay, conditions: PA-1, 3 mg/kg, single administration, intravenous

For B4, the “Tumor growth inhibition rate TGI% (day 13)” value was 103.88%.

Each molecule was assayed on subcutaneous HCC1187 tumors (assay: ADC efficacy in breast cancer cell line HCC1187 graft mouse model). Conditions: HCC1187, 1 mg/kg, Q4D×2, intravenous.
Type: in vivo, CB17 SCID mouse
Description: as §1

Going from B1 to B2, the “Tumor growth inhibition rate TGI% (day 27)” value rises from 111.08% to 111.35%.

Going from B3 to B4, the “Tumor growth inhibition rate TGI% (day 27)” value falls from 111.64% to 111.01%.

Same assay, conditions: HCC1187, 3 mg/kg, single administration, intravenous

Going from B1 to B2, the “Tumor growth inhibition rate TGI% (day 27)” value rises from 109.30% to 111.77%.

First: B3
Second: B4
The “Tumor growth inhibition rate TGI% (day 27)” value of the first is lower: 111.25% for the first, 111.26% for the second.
